This is one part of the list. Viral Rep nickase domains cut single-stranded DNA in vitro for 1 h at 37 °C with 3 µM enzyme; only the middle of the 90-letter strands is printed. The score is log2 (uncut reads / reads without enzyme); the lower, the more was cut; hits are not called. Reads are scaled to the total; values above 0 arise when much of the pool is cut.
Experiments:
Assay in all cases: uncleaved DNA left, log2 of reads against the no-enzyme library (log2 ratio); higher = less cleavage (more negative = more Rep cleavage of the k-mer); sequences stand for … in CTCGTCCG…ACCGGAGA
[1] = test system: T1, Rep nickase domain of Muscovy duck circovirus
T1 sequence (protein, residues 1-111, tag omitted): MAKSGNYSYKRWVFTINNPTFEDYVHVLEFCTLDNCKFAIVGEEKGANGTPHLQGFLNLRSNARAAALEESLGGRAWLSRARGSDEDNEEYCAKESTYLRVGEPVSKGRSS
Description: (§1)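 A pool of 90-nt single-stranded DNAs with seven random bases just before the constant AC of the nick site (name = the seven bases) was cut by 3 µM recombinant His6-SUMO-tagged Rep nickase domain (300 nM DNA, 50 mM HEPES pH 8.0, 50 mM NaCl, 1 mM MnCl2, 1 h, 37 °C, three replicates). Uncut DNA was amplified and sequenced.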

[2] = test system: T2, Rep nickase domain of banana bunchy top virus
T2 sequence (protein, residues 1-94, tag omitted): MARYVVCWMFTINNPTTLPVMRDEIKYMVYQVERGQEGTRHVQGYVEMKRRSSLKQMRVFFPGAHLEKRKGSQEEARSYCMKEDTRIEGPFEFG
Description: as §1

[3] = test system: T3, Rep nickase domain of cabbage leaf curl virus
T3 sequence (protein, residues 1-116, tag omitted): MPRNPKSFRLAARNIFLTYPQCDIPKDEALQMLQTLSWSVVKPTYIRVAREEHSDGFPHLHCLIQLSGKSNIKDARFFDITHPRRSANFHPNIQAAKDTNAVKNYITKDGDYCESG
Description: as §1

[4] = test system: T4, Rep nickase domain of chickpea chlorotic dwarf virus
T4 sequence (protein, residues 1-124, tag omitted): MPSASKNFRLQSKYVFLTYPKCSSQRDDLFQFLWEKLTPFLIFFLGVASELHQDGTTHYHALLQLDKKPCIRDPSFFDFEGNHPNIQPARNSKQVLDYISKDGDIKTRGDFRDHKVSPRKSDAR
Description: as §1

[5] = test system: T5, Rep nickase domain of faba bean necrotic yellows virus
T5 sequence (protein, residues 1-98, tag omitted): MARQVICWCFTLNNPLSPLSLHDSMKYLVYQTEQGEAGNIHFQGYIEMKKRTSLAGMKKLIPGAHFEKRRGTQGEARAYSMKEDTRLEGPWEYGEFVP
Description: as §1

[6] = test system: T6, Rep nickase domain of maize striate mosaic virus
T6 sequence (protein, residues 1-117, tag omitted): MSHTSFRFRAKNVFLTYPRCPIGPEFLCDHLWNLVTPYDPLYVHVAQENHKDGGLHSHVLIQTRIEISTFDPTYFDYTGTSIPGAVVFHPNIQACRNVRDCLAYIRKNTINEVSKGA
Description: as §1

[7] = test system: T7, Rep nickase domain of porcine circovirus 2
T7 sequence (protein, residues 2-116, tag omitted): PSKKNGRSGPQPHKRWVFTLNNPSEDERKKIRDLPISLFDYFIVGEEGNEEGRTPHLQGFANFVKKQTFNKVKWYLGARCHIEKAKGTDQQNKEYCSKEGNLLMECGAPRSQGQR
Description: as §1

[8] = test system: T8, Rep nickase domain of tomato golden mosaic virus
T8 sequence (protein, residues 1-124, tag omitted): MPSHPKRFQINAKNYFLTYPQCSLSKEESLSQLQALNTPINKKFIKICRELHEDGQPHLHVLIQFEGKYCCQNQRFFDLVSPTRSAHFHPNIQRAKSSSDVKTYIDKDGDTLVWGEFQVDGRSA
Description: as §1

[9] = test system: T9, Rep nickase domain of tomato yellow leaf curl virus
T9 sequence (protein, residues 1-136, tag omitted): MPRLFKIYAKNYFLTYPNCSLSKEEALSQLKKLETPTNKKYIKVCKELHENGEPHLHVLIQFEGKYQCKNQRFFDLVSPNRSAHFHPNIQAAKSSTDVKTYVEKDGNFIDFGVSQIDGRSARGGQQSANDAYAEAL
Description: as §1

[10] = test system: T10, Rep nickase domain of wheat dwarf virus
T10 sequence (protein, residues 1-137, tag omitted): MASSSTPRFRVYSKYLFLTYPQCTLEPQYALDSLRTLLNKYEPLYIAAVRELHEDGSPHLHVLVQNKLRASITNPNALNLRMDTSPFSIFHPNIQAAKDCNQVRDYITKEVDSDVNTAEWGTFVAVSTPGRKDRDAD
Description: as §1

Sequence	uncleaved DNA left (log2) [1]	uncleaved DNA left (log2) [2]	uncleaved DNA left (log2) [3]	uncleaved DNA left (log2) [4]	uncleaved DNA left (log2) [5]	uncleaved DNA left (log2) [6]	uncleaved DNA left (log2) [7]	uncleaved DNA left (log2) [8]	uncleaved DNA left (log2) [9]	uncleaved DNA left (log2) [10]
CTGTGGA	0.0946	-0.123	-0.0328	-0.267	-0.0816	-0.669	-0.0221	-0.0276	-0.0524	-0.0453
TAGCAGG	0.0657	0.0174	0.199	0.623	0.0485	0.472	0.12	0.0692	0.0438	0.0656
GCAGGCA	0.00421	0.0688	-0.00976	0.298	-0.0739	-0.186	0.0179	0.0408	-0.0164	-0.0624
CGGTGCG	-0.132	-0.0745	-0.698	0.84	-0.24	0.18	-0.0974	-0.262	-0.27	-0.183
CTAGTTG	0.00312	-0.0136	-0.191	-0.214	0.107	-0.775	0.0651	-0.00793	-0.00702	-0.178
TAACTCT	-0.0258	-0.0311	-3.86	-3.65	0.0423	-2.58	-0.692	-1.62	0.00621	-3.67
CGATATT	-2.98	-0.867	-1.12	-2.35	0.0382	-0.302	-3.38	-0.454	0.071	-1.44
TAGCGTT	0.0105	-0.242	-0.913	-2.17	-0.17	-1.08	-3.4	-0.124	0.0327	-0.138
CTGGGAA	0.197	0.0448	0.68	1.38	0.159	1.56	0.318	0.00793	0.18	0.234
CATAGGC	-0.00266	-0.0308	-0.0286	-0.0254	-0.0488	-0.975	0.0796	-0.0773	0.00732	-0.108
GTTGGAT	0.0446	-0.00352	0.317	1.39	-0.0443	1.85	0.192	0.193	-0.0088	0.0192
GTGTTAC	-0.139	0.0787	0.0339	0.636	-0.0623	1.78	-0.281	-0.0542	-0.028	-0.169
CACCTTT	-0.184	-0.234	-0.456	-2.52	0.021	-0.658	-2.58	-0.237	-0.157	-0.203
ATTTGGG	0.044	0.0162	-0.588	-0.518	0.185	-1.06	0.275	0.104	0.184	-0.00838
TAGCTTA	-0.0694	-0.0927	-0.419	-2.26	-0.0398	-0.301	-2.12	-0.132	-0.0151	-0.164

From the supplement of paper PMC7826260
